Test results taken from article PMC4336329 (PLoS ONE, 2015).
About 14,000 (4.5%) of roughly 310,000 compounds showed an effect of 50% or more. Effects have a minus sign here. The list shows a part of the results.
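Note: peak tail current of the secondary pulse compared with the same well before compound.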

What follows are compounds tested against human ether-à-go-go-related gene (hERG) potassium channel (human, UniProt Q12809) (assay: primary screen, population patch clamp on CHO cells stably expressing hERG).
Sequence of human ether-à-go-go-related gene (hERG) potassium channel (Q12809 whole entry, looked up): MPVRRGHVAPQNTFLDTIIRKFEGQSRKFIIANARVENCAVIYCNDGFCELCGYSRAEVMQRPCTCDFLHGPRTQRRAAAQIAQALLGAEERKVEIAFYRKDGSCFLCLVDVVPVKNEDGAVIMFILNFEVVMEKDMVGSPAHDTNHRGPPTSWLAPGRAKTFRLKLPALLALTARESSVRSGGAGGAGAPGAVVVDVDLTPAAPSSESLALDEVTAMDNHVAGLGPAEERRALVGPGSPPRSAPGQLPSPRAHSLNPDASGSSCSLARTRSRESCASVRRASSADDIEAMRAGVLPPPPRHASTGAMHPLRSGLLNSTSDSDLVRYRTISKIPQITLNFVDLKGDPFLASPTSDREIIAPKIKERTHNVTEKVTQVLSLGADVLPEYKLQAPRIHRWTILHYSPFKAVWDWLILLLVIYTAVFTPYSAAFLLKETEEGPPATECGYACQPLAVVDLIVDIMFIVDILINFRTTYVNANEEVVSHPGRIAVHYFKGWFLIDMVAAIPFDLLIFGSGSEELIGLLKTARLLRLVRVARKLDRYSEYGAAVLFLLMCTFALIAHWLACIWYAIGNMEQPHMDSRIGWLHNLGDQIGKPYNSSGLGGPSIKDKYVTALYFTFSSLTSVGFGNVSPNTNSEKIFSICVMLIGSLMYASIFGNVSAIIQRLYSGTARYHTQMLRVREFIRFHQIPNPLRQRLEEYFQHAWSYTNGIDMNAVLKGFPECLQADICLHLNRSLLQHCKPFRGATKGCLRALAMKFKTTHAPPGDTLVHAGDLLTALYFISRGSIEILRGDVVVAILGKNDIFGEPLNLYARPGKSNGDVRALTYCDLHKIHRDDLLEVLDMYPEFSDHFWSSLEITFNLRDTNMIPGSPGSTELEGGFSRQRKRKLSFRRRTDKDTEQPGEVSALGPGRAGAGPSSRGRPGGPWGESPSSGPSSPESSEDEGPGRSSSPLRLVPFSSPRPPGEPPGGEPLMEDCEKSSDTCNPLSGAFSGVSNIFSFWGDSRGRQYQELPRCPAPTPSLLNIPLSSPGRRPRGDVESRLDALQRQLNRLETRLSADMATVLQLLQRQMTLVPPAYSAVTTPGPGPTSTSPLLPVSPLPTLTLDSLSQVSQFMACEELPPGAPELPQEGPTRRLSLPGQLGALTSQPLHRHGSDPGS
For CC(=O)O[C@]1(c2ccccc2)CCN(C)[C@H]2CCCC[C@@H]21.Cl, the “hERG current change (%, negative = inhibition) at 10uM” value was 12.4%. With CC(C)CCN(C(=O)COc1ccc(C#N)cc1)c1c(N)n(Cc2ccccc2)c(=O)[nH]c1=O the “hERG current change (%, negative = inhibition) at 10uM” value was 20.6%. CCOC(=O)C1(c2ccccc2)CCN(CCC(=O)Nc2ccc(C(=O)OC)cc2)CC1 was tested, and the “hERG current change (%, negative = inhibition) at 10uM” value was -24.2%. For Cc1ccc(S(=O)(=O)N(CC(=O)N/N=C/c2ccco2)Cc2ccccc2)cc1, the “hERG current change (%, negative = inhibition) at 10uM” value was -20.7%. With COc1ccc(Oc2nnc(C)c3ccccc23)cc1 the “hERG current change (%, negative = inhibition) at 10uM” value was -3.54%. For CCOC(=O)c1ccc(-n2c(CC)nc3ccccc3c2=O)cc1, the “hERG current change (%, negative = inhibition) at 10uM” value was 15.1%. In the case of O=C(c1ccccc1)c1ccc2nc(-c3ccco3)c(-c3ccco3)nc2c1, the “hERG current change (%, negative = inhibition) at 10uM” value is reported as 5.9%. In the case of CCOc1cc(C(=S)N2CCCCC2)ccc1OCC(=O)NCc1ccccc1, the “hERG current change (%, negative = inhibition) at 10uM” value is reported as -31.2%. For O=c1c(Cc2ccc(F)cc2)c(O)ccn1Cc1ccc(Cl)cc1Cl, the “hERG current change (%, negative = inhibition) at 10uM” value was 6.08%. With Cl.O=C(c1ccco1)N(Cc1ccccc1)Cc1ccccn1 the “hERG current change (%, negative = inhibition) at 10uM” value was 29.5%. With CCCC12CN3CC(C)(CN(C1)C3c1ccc(OC(C)C)cc1)C2=O (centres unmarked) the “hERG current change (%, negative = inhibition) at 10uM” value was -16.9%. For Cc1nn(-c2ccccc2)c(C)c1C(=O)OCC(=O)N(C)c1c(N)n(Cc2ccccc2)c(=O)[nH]c1=O, the “hERG current change (%, negative = inhibition) at 10uM” value was -3.66%. With CN(C)C=O.O=C(O)c1cccc(-n2c(/C=C/c3cccc([N+](=O)[O-])c3)nc3ccccc3c2=O)c1 the “hERG current change (%, negative = inhibition) at 10uM” value was 15.1%. In the case of O=C(CN1C(=O)c2ccccc2S1(=O)=O)NCCc1ccccc1, the “hERG current change (%, negative = inhibition) at 10uM” value is reported as -5.1%. In the case of CC(Oc1ccc2c3c(c(=O)oc2c1)CCCC3)C(=O)NCc1cccnc1 (centres unmarked), the “hERG current change (%, negative = inhibition) at 10uM” value is reported as 10.4%. CCNC(=O)NC(=O)C(C)OC(=O)c1c(C)nn(Cc2ccccc2)c1Cl (centres unmarked) was tested, and the “hERG current change (%, negative = inhibition) at 10uM” value was -0.451%. For O=C(C1=C[C@H](c2ccc3c(c2)OCO3)C[C@H](OCc2ccc(CO)cc2)O1)N1CCOCC1, the “hERG current change (%, negative = inhibition) at 10uM” value was -6.6%. Cc1cccc(CN2CCC(CNC(=O)Cn3ncc4c([nH]c5ccccc54)c3=O)CC2)c1 was tested, and the “hERG current change (%, negative = inhibition) at 10uM” value was -23.1%. For COc1ccccc1CN1C(=S)SC(C)(C)C1NO (centres unmarked), the “hERG current change (%, negative = inhibition) at 10uM” value was -15.3%. In the case of Cc1cc(OCCCn2cnc3ccccc3c2=O)ccc1[N+](=O)[O-], the “hERG current change (%, negative = inhibition) at 10uM” value is reported as -15.5%. CC1SCCN1S(=O)(=O)c1ccc2ccccc2c1 (centres unmarked) was tested, and the “hERG current change (%, negative = inhibition) at 10uM” value was -5.42%. With N/C(=N\OC(=O)c1cccs1)c1cccnc1 the “hERG current change (%, negative = inhibition) at 10uM” value was 18.3%. For O=C(COC(=O)/C=C/c1ccc(Cl)cc1)NC(=O)NCc1ccccc1, the “hERG current change (%, negative = inhibition) at 10uM” value was 7.5%. For CC(=O)Nc1nc(C)nc(-c2ccccc2)c1C(C)=O, the “hERG current change (%, negative = inhibition) at 10uM” value was 2.06%. In the case of O=C(CSc1nnc(SCc2cccc3ccccc23)s1)c1ccc2c(c1)OCO2, the “hERG current change (%, negative = inhibition) at 10uM” value is reported as 18.4%. COc1ccc(OCc2cc(C(=O)NC3CCOCC3)no2)c2ccccc12 was tested, and the “hERG current change (%, negative = inhibition) at 10uM” value was 10.5%. In the case of COc1ccccc1S(=O)Cc1ccc(C(=O)NC2CCCC2)o1 (centres unmarked), the “hERG current change (%, negative = inhibition) at 10uM” value is reported as 0.941%. For COc1ccc(OC)c(N/C(C)=C/C(=O)c2ccccc2)c1, the “hERG current change (%, negative = inhibition) at 10uM” value was -7.86%. Cc1cc(C)n(NC(=S)NC2CCCC2)c(=O)c1C#N was tested, and the “hERG current change (%, negative = inhibition) at 10uM” value was 13.5%. For C=CC(=C)CC(NC)c1ccccc1 (centres unmarked), the “hERG current change (%, negative = inhibition) at 10uM” value was 8.72%. With CCC1(C)N(O)C(C)(C)C(c2ccc(F)cc2)=[N+]1[O-] (centres unmarked) the “hERG current change (%, negative = inhibition) at 10uM” value was -5.99%. In the case of COc1ccc(NC(=O)C2CCN(S(=O)(=O)c3ccc(OC)c(OC)c3)CC2)c(OC)c1, the “hERG current change (%, negative = inhibition) at 10uM” value is reported as -16.1%. For O=C(NC(=O)c1c(F)cccc1F)Nc1cc(Cl)c(F)c(Cl)c1F, the “hERG current change (%, negative = inhibition) at 10uM” value was 13.2%. For Cc1ccc(C)c(N2CCN(C(=O)CCC(=O)N3CCOc4ccc(Cl)cc43)CC2)c1, the “hERG current change (%, negative = inhibition) at 10uM” value was -18.9%. For Cc1cc(C)n(CC(=O)N2CCCC(N3CCN(c4ccccc4C)CC3)C2)n1 (centres unmarked), the “hERG current change (%, negative = inhibition) at 10uM” value was -14%. With CC(C)(C)c1ccc(S(=O)(=O)NCc2ccc(C(=O)N3CCCC3)cc2)cc1 the “hERG current change (%, negative = inhibition) at 10uM” value was 11.6%. In the case of CCOC(=O)C(CCCCC(NC(C)=O)(C(=O)OCC)C(=O)OCC)(NC(C)=O)C(=O)OCC, the “hERG current change (%, negative = inhibition) at 10uM” value is reported as 8.24%. In the case of Cc1sc(NC(=O)c2ccccc2)c(C(c2ccc(Cl)cc2)N2CCN(CCO)CC2)c1C (centres unmarked), the “hERG current change (%, negative = inhibition) at 10uM” value is reported as -4.47%. In the case of CCCN(CC1CC1)C(=O)CSc1ncnc2sccc12, the “hERG current change (%, negative = inhibition) at 10uM” value is reported as -21.2%. For CCc1cc(=O)oc2cc(C)cc(OC(C)C(=O)NCCCN3CCCC3=O)c12 (centres unmarked), the “hERG current change (%, negative = inhibition) at 10uM” value was -15.1%. With CC(C)(C)NC(=O)NC(=O)CSc1nncs1 the “hERG current change (%, negative = inhibition) at 10uM” value was 14.9%. For Cc1ccc(S(=O)(=O)N2CCOCC2)c(C)c1-n1cnnn1, the “hERG current change (%, negative = inhibition) at 10uM” value was -1.49%. In the case of CCOc1ccc(CCNC(=O)COC(=O)COc2ccccc2C)cc1OCC, the “hERG current change (%, negative = inhibition) at 10uM” value is reported as 8.57%. With COc1ccc(Nc2nc3ccccc3nc2C)cc1 the “hERG current change (%, negative = inhibition) at 10uM” value was -5.18%. In the case of CCNC(=S)N1CCc2cc(OC)c(OC)cc2C1COc1ccccc1OC (centres unmarked), the “hERG current change (%, negative = inhibition) at 10uM” value is reported as 10.3%. For COC(=O)c1c(NC(=O)CSc2nnnn2-c2ccc3c(c2)OCO3)sc(C)c1C, the “hERG current change (%, negative = inhibition) at 10uM” value was 12.4%. COc1ccc(CCNCc2ccccc2)cc1.O=C(O)C(=O)O was tested, and the “hERG current change (%, negative = inhibition) at 10uM” value was -23.9%. With CCOc1ccccc1NC(=O)CSc1nnc2ccc(-c3ccccn3)nn12 the “hERG current change (%, negative = inhibition) at 10uM” value was 2.41%. O=C(CC1C(=O)NCCN1CC1CCCCC1)NCc1cccc(F)c1F (centres unmarked) was tested, and the “hERG current change (%, negative = inhibition) at 10uM” value was -6.94%. With Fc1ccc(NC(=S)N2CCCN(c3ccc(C(F)(F)F)cn3)CC2)c(F)c1 the “hERG current change (%, negative = inhibition) at 10uM” value was -25.8%. CCCCSc1nnc(C)c(=O)[nH]1 was tested, and the “hERG current change (%, negative = inhibition) at 10uM” value was 3.25%. For COc1ccccc1C1(CC(=O)N2CCCCC2)CCOC(C(C)C)C1 (centres unmarked), the “hERG current change (%, negative = inhibition) at 10uM” value was -2.29%. CC(C)(C)n1nnnc1CN1CCN2CCCC2C1 (centres unmarked) was tested, and the “hERG current change (%, negative = inhibition) at 10uM” value was -0.605%. In the case of CCc1c(C)sc(NC(=O)c2cccs2)c1C(N)=O, the “hERG current change (%, negative = inhibition) at 10uM” value is reported as 6.47%. For O=C(NC1CCCc2c1cnn2-c1ccc(F)cc1F)c1cnccn1 (centres unmarked), the “hERG current change (%, negative = inhibition) at 10uM” value was -5.23%. In the case of Cc1c(C2N3CC4(C)CN2CC(C)(C3)C4=O)c2ccccc2n1C (centres unmarked), the “hERG current change (%, negative = inhibition) at 10uM” value is reported as -13%.
